Test results published in patent US20250214977A1, “STAT6 INHIBITORS AND USES THEREOF” (Kymera Therapeutics, Inc., priority 2024, published 2025).

Target: T1, biotinylated truncated STAT6 (123-632)-avi (Homo sapiens, UniProt P42226)
T1 sequence (P42226 123-632 limits assumed): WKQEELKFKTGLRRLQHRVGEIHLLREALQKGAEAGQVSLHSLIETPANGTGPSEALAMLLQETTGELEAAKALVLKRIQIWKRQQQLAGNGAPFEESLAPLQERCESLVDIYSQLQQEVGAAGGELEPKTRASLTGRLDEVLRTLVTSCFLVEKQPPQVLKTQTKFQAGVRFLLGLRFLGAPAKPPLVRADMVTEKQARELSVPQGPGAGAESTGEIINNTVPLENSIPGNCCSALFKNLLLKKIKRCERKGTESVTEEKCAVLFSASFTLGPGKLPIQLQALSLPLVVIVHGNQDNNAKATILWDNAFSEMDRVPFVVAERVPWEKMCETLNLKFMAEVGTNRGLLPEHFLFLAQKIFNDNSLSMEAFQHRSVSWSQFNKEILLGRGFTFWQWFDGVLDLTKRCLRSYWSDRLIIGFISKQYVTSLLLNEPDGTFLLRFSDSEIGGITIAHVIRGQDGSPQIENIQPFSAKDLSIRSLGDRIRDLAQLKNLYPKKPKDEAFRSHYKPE
Assay: Homogenous Time-Resolved Fluorescence (HTRF) binding assay
Conditions: 0.15 nM biotinylated truncated STAT6 (123-632)-avi, 20 nM fluorescein-labeled probe

Compound | IC50 (30 minutes at room temperature) | IC50 (30 minutes room temperature)
CN(C)C(=O)c1cc2cc(C3=CCCN(C(=O)Cc4ccc5nccnc5c4)C3)ccc2o1 [Example I-297] | 10000 to 100000 nM | –
Cc1cnnn1CCC(=O)N1CCC=C(c2ccc3cc(C(=O)N(C)C)[nH]c3c2)C1 [Example I-12] | 100 to 1000 nM | –
CN(C)C(=O)c1ccc2oc(C3=CCCN(C(=O)CCn4ccnn4)C3)nc2c1 [Example I-1292] | – | 10000 to 100000 nM
CN(C(=O)c1cc2c(-c3cccnc3C3CC3)cc(C3=CCCN(C(=O)CCn4ccnn4)C3)c(F)c2[nH]1)C1CC1 [Example I-1342] | – | < 100 nM
CN(C)C(=O)c1cc2c(F)c(C3=CCCN(C(=O)CCn4ccnn4)C3)ccc2o1 [Example I-1052] | < 100 nM | –
COc1ccc(-c2cc(C3=CCCN(C(C)=O)C3)c(F)c3[nH]c(C(=O)N(C)C)cc23)cc1 [Example I-1579] | – | 100 to 1000 nM
COc1ccccc1-c1cc(C2=CCCN(C(=O)CCn3ccnn3)C2)c(F)c2[nH]c(C(=O)N3CCN(c4cncc(C#N)n4)CC3)cc12 [Example I-1358] | – | < 100 nM
COc1cc(F)cnc1N1CCN(C(=O)c2cc3c(-c4ccc(-n5nc(C)cc5C)cc4)cc(C4=CCCN(C(=O)CCn5ccnn5)C4)c(F)c3[nH]2)CC1 [Example I-1114] | < 100 nM | –
COc1ncccc1-c1cc(C(=O)N2Cc3cnn(C)c3C2)cc2cc(C3=CCCN(C(=O)CC(=O)O)C3)n(CC3CC3)c12 [Example I-791] | < 100 nM | –
COc1ccccc1-c1cc(C2=CCCN(C(=O)CCn3ccnn3)C2)c(F)c2[nH]c(C(=O)N3CCN(c4ncc(C)cc4OC)CC3)cc12 [Example I-939] | < 100 nM | –
COc1ccccc1-c1cc(C2=CCCN(C(=O)CCn3ccnn3)C2)c(F)c2[nH]c(C(=O)N3CCc4nnc(-c5ccccn5)n4CC3)cc12 [Example I-1372] | – | < 100 nM
CCc1nc(C)ccc1-c1cc(C(=O)N2Cc3cnn(C)c3C2)cc2c(F)c(C3CCCN(C(=O)CC(=O)O)C3)n(CC3CC3)c12 (stereo not shown) [Example I-1336] | – | 1000 to 10000 nM
COc1ccncc1-c1cc(C2=CCCN(C(=O)CCn3ccnn3)C2)c(F)c2[nH]c(C(=O)N3CC=C(c4ccc(F)c(OC)n4)CC3)cc12 [Example I-434] | < 100 nM | –
COc1ccncc1-c1cc(C2=CCCN(C(C)=O)C2)c(F)c2[nH]c(C(=O)N3CCN(c4ncc(F)cc4OC)CC3)cc12 [Example I-696] | > 100000 nM | –
COc1ccccc1-c1cc(C2=CCCN(C(=O)CCn3ccnn3)C2)c(F)c2[nH]c(C(=O)N3Cc4cnn(C)c4C3)cc12 [Example I-464] | < 100 nM | –
CNc1cnc(N2CCN(C(=O)c3cc4c(-c5ccccc5OC)cc(C5=CCCN(C(=O)CCn6ccnn6)C5)c(F)c4[nH]3)CC2)c(OC)c1 [Example I-353] | < 100 nM | –
COc1cccc(C)c1-c1cc(C2=CCCN(C(=O)CCn3ccnn3)C2)c(F)c2[nH]c(C(=O)N(C)C)cc12 [Example I-1632] | – | < 100 nM
COc1cccnc1N1CCN(C(=O)c2cc3c(-n4ccc5ccccc54)cc(C4=CCCN(C(=O)CCn5ccnn5)C4)c(F)c3[nH]2)CC1 [Example I-578] | < 100 nM | –
COc1ccccc1-c1cc(C2=CCCN(C(=O)CCn3ccnn3)C2)c(F)c2[nH]c(C(=O)N3CCN(c4cnc5ncccn45)CC3)cc12 [Example I-1017] | < 100 nM | –
CNC1(C(=O)N2CCC=C(c3ccc4oc(C(=O)N(C)C)cc4c3)C2)CCc2ccccc2C1 (stereo not shown) [Example I-5] | 10000 to 100000 nM | –
COc1ccccc1-c1cc(C2=CCCN(C(=O)CCn3ccnn3)C2)c(F)c2[nH]c(C(=O)N3CCn4c3cc(Cl)nc4=O)cc12 [Example I-1398] | – | < 100 nM
CN(C)C(=O)c1cc2cc(C3=CCCN(C(=O)CCn4ccnn4)C3)cc(-c3ccc(F)cc3O)c2o1 [Example I-1074] | < 100 nM | –
CN(C)C(=O)c1cc2ccc(C3=CCCN(C(=O)C4CCN(S(C)(=O)=O)CC4)C3)cc2[nH]1 [Example I-140] | 10000 to 100000 nM | –
COc1cc(F)cnc1N1CCN(C(=O)c2cc3c(C4=CCC(C#N)CC4)cc(C4=CCCN(C(=O)CCn5ccnn5)C4)c(F)c3[nH]2)CC1 (stereo not shown) [Example I-1141] | < 100 nM | –
COc1ccccc1-c1cc(C2=CCCN(C(=O)CCn3ccnn3)C2)c(F)c2[nH]c(C(=O)N3CCN(c4cnn5ccncc45)CC3)cc12 [Example I-1015] | < 100 nM | –
